Among the data in the antibiotic and cytotoxicity screens of Wong et al. (2023) are cytotoxicity call and growth inhibition call values, retold here.

Structures are written as SMILES. This is one part of the list.

The subject of one test is HSkMC. Kind of test: cytotoxicity call (relative viability < 0.9). The note with it: 10 µM.
The next test relates to HepG2. Kind of test: cytotoxicity call (relative viability < 0.9). The note with it: 10 µM.
For the next test, the system named is S. aureus RN4220. Kind of test: growth inhibition call (relative growth <= 0.2). The following applies: 50 µM.

As for `C#CC1(O)CCC2C3CCC4=CC(=O)CCC4C3CCC21CC` (centres undefined), the cytotoxicity call with HSkMC and in the test on HepG2 was “inactive” throughout. The growth inhibition call with S. aureus RN4220 was “inactive”.
Consider `CCCNC(=O)c1cc2c(c(-c3cccc(-c4ccc(F)cc4)c3)n1)[C@H](CCO)N([S@@](=O)C(C)(C)C)C2`, for which the cytotoxicity call in the test on HSkMC and in the test with HepG2 was “inactive” each time. Moreover, the growth inhibition call in the test with S. aureus RN4220 was “inactive”.
On to `COc1ccc(S(=O)(=O)N(C)C[C@H]2Oc3cc(C4=CCCC4)ccc3S(=O)(=O)N([C@H](C)CO)C[C@@H]2C)cc1`, for which the cytotoxicity call with HSkMC and with HepG2 was “inactive” in each case. Also, the growth inhibition call in the test with S. aureus RN4220 was “inactive”.
In the case of `CCCCCCCC(=O)OCC(COC(=O)CCCCCCC)OC(=O)CCCCCCC`, the cytotoxicity call with HSkMC and with HepG2 was “inactive” throughout. Also, the growth inhibition call with S. aureus RN4220 is “inactive”.
Take `C[C@@H]1CN([C@H](C)CO)C(=O)c2cccc(NS(=O)(=O)c3ccccc3)c2O[C@@H]1CN(C)Cc1ccc(Oc2ccccc2)cc1`: the cytotoxicity call with HSkMC and in the test on HepG2 was “inactive” in each case. For the same compound, the growth inhibition call in the test on S. aureus RN4220 is “inactive”.
Regarding `CO[C@H]1CN(C)C(=O)c2ccc(NS(=O)(=O)c3cn(C)cn3)cc2OC[C@@H](C)N(CC2CC2)C[C@@H]1C`, the cytotoxicity call in the test on HSkMC and with HepG2 was “inactive” throughout. Besides, in the test on S. aureus RN4220, the growth inhibition call is “inactive”.
As to `Cc1csc2c(Cl)ncnc12`, the cytotoxicity call with HSkMC and in the test on HepG2 was “inactive” in each case. The growth inhibition call in the test with S. aureus RN4220 is “inactive”.
As for `NCCC[C@@H](N)CC(=O)NC[C@H]1NC(=O)[C@@H](CO)NC(=O)[C@@H](N)CNC(=O)[C@H]([C@H]2CCN=C(N)N2)NC(=O)C(C=NC(N)=O)NC1=O` (some centres undefined), the cytotoxicity call with HSkMC and with HepG2 was “inactive” throughout. The growth inhibition call with S. aureus RN4220 was “inactive”.
Turning to `COc1ccc(S(=O)(=O)N(C)C[C@@H]2Oc3c(NC(=O)Nc4cccc5ccccc45)cccc3C(=O)N([C@H](C)CO)C[C@H]2C)cc1`, in the test on HSkMC, the cytotoxicity call is “inactive”. Besides, in the test with HepG2, the cytotoxicity call was “active”. Besides, in the test with S. aureus RN4220, the growth inhibition call was “inactive”.
On to `CC(C)(C)CN`, for which the cytotoxicity call with HSkMC and with HepG2 was “inactive” each time. Further, the growth inhibition call with S. aureus RN4220 is “inactive”.
For `CC(C)CC#Cc1cnc2c(c1)C(=O)N([C@@H](C)CO)C[C@@H](C)[C@H](CN(C)S(=O)(=O)c1cn(C)cn1)O2`, the cytotoxicity call with HSkMC and in the test with HepG2 was “inactive” throughout. Besides, the growth inhibition call in the test with S. aureus RN4220 was “inactive”.
On to `C[C@H]1CN([C@@H](C)CO)C(=O)c2cc(NS(=O)(=O)c3cn(C)cn3)ccc2O[C@@H]1CN(C)C(=O)Nc1ccc2c(c1)OCO2`, for which the cytotoxicity call in the test on HSkMC and in the test on HepG2 was “inactive” throughout. Moreover, in the test on S. aureus RN4220, the growth inhibition call was “inactive”.
Regarding `CC=Cc1ccc2n(c1=O)C[C@@H]1[C@@H](CO)[C@H](C(=O)NCCc3cn(C)cn3)[C@H]2N1C(=O)C1CC1`, the cytotoxicity call in the test with HSkMC and in the test with HepG2 was “inactive” throughout. In addition, the growth inhibition call in the test with S. aureus RN4220 is “inactive”.
Turning to `C[C@@H]1CN([C@H](C)CO)C(=O)c2cccc(NC(=O)C3CCCCC3)c2O[C@H]1CN(C)Cc1ccc(Oc2ccccc2)cc1`, the cytotoxicity call in the test with HSkMC and in the test with HepG2 was “inactive” throughout. The growth inhibition call in the test on S. aureus RN4220 was “inactive”.
For the compound `CCOC(=O)n1ccn(C)c1=S`, the cytotoxicity call with HSkMC and with HepG2 was “inactive” throughout. Besides, the growth inhibition call with S. aureus RN4220 was “inactive”.
For `CC(C)CC#Cc1ccc2c(c1)O[C@@H](CN(C)C(=O)Cc1ccncc1)[C@@H](C)CN([C@H](C)CO)S2(=O)=O`, the cytotoxicity call in the test on HSkMC and in the test with HepG2 was “inactive” throughout. For the same compound, the growth inhibition call in the test with S. aureus RN4220 was “inactive”.
As for `C[C@@H]1CCCCO[C@@H](CN(C)C(=O)Nc2ccc3c(c2)OCO3)[C@@H](C)CN([C@@H](C)CO)C(=O)c2cc(NC(=O)Nc3ccc(F)cc3)ccc2O1`, the cytotoxicity call in the test with HSkMC and with HepG2 was “inactive” throughout. For the same compound, the growth inhibition call in the test with S. aureus RN4220 is “inactive”.
For `Cc1ccc(S[C@]2(C(=O)NCCN3CCOCC3)CC(=O)N(Cc3cc(C(F)(F)F)cc(C(F)(F)F)c3)[C@@H]2c2ccc(CO)cc2)cc1`, the cytotoxicity call with HSkMC and in the test on HepG2 was “inactive” each time. The growth inhibition call in the test on S. aureus RN4220 is “inactive”.
In the case of `CCc1cnc2c(c1OC)c(=O)[nH]c(=O)n2C`, the cytotoxicity call with HSkMC and in the test with HepG2 was “inactive” each time. The growth inhibition call with S. aureus RN4220 was “inactive”.
Turning to `CO[C@@H]1CN(C)C(=O)c2cc(NC(=O)Nc3ccccc3)ccc2OC[C@H](C)N(C(=O)CN(C)C)C[C@@H]1C`, the cytotoxicity call with HSkMC and in the test with HepG2 was “inactive” in each case. Besides, the growth inhibition call with S. aureus RN4220 is “inactive”.
For `COc1ccc(COC(=O)[C@H]2[C@H]3C(=O)N(Cc4ccc5c(c4)OCO5)C[C@]34C=C[C@]2(Br)O4)cc1`, the cytotoxicity call with HSkMC and in the test with HepG2 was “inactive” throughout. Moreover, the growth inhibition call in the test on S. aureus RN4220 is “inactive”.
With `CC(C)CC(=O)N[C@H](C(=O)N[C@H](C(=O)N[C@@H](CC(C)C)[C@@H](O)CC(=O)N[C@@H](C)C(=O)N[C@@H](CC(C)C)[C@@H](O)CC(=O)O)C(C)C)C(C)C`, the cytotoxicity call in the test with HSkMC and with HepG2 was “inactive” each time. Moreover, the growth inhibition call with S. aureus RN4220 was “inactive”.
Take `C[C@H]1CN([C@@H](C)CO)C(=O)c2cccc(NS(C)(=O)=O)c2O[C@@H]1CN(C)C(=O)Nc1ccc2c(c1)OCO2`: the cytotoxicity call in the test on HSkMC and in the test on HepG2 was “inactive” each time. Besides, the growth inhibition call with S. aureus RN4220 is “inactive”.
As for `C[C@@H]1CN([C@@H](C)CO)C(=O)c2c(c3ccccc3n2C)-c2ccccc2CO[C@H]1CN(C)C(=O)Nc1cccc(C(F)(F)F)c1`, the cytotoxicity call with HSkMC was “inactive”. Besides, in the test with HepG2, the cytotoxicity call is “active”. In the test with S. aureus RN4220, the growth inhibition call was “inactive”.
With `CCOc1nc2cccc(C(=O)O[C@@H](C)OC(=O)OC3CCCCC3)c2n1Cc1ccc(-c2ccccc2-c2nn[nH]n2)cc1`, the cytotoxicity call in the test on HSkMC (human skeletal muscle cells) and with HepG2 was “inactive” each time. In the test with S. aureus RN4220, the growth inhibition call was “active”.
On to `Cc1noc(C)c1NC(=O)Nc1cccc2c1O[C@H](CN(C)Cc1ccc(-c3ccccc3)cc1)[C@@H](C)CN([C@@H](C)CO)C2=O`, for which the cytotoxicity call with HSkMC and with HepG2 was “inactive” in each case. In the test on S. aureus RN4220, the growth inhibition call is “inactive”.
Turning to `C[C@@H]1CN([C@H](C)CO)C(=O)c2cccc(NC(=O)Nc3ccccc3)c2O[C@H]1CN(C)C(=O)Nc1cccc2ccccc12`, the cytotoxicity call with HSkMC and in the test on HepG2 was “inactive” each time. For the same compound, in the test with S. aureus RN4220, the growth inhibition call was “inactive”.
For the compound `C[C@@H]1CN([C@H](C)CO)C(=O)c2cc(NC(=O)Nc3ccc(C(F)(F)F)cc3)ccc2O[C@@H](C)CCCCO[C@@H]1CN(C)Cc1ccc2c(c1)OCO2`, the cytotoxicity call with HSkMC and with HepG2 was “active” throughout. The growth inhibition call in the test on S. aureus RN4220 is “inactive”.
